# Laboratory results taken from the supplement of paper PMC4967469.
# Lines with a small IC50 respond at low doses; where the fit passes the top or lowest dose, that dose stands as a limit. AUC is the area under the same curve over the 256-fold range up to the top dose, as a fraction; it is 1 without any effect and falls as sensitivity rises. An inferred top dose was calculated from the reported fits. For part of these data: An entry number marks a drug with two screens in the source, which often give different values.
# Compound: CNC(=O)c1ccc(Nc2cc(Nc3ccccc3S(=O)(=O)C(C)C)c3cc[nH]c3n2)nc1 [HG-5-113-01]
# Experiment: Viability of human cancer cell lines after 72 h of drug (GDSC screen)
# Conditions: top dose 10 µM; top dose inferred
# Method: (§1)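 Human cancer cell lines in 384-well plates, medium with 10% serum, drug for 72 h over a 256-fold dose range (nine 2-fold or five 4-fold steps up to the top dose). Adherent lines were fixed and stained with the nucleic acid dye Syto60, suspension lines read with resazurin; signal relative to control wells, capped at 0 and 100%. One two-parameter sigmoid per drug and line, fitted in a mixed model over all curves with the slope shared within a line.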
Cell Line,AUC,IC50
"MZ2-MEL (melanoma, adherent)",0.787,5.17 µM
"Mo-T (hairy cell leukaemia, suspension)",0.871,9.74 µM
"NALM-6 (B-cell leukaemia, suspension)",0.643,1.44 µM
"NAMALWA (Burkitt lymphoma, suspension)",0.766,3.13 µM
"NB1 (neuroblastoma, semi-adherent)",0.489,0.58 µM
"NB5 (neuroblastoma, adherent)",0.672,1.89 µM
"NB6 (neuroblastoma, adherent)",0.871,> 10 µM
"NB10 (neuroblastoma, adherent)",0.696,2.18 µM
"NB13 (neuroblastoma, adherent)",0.711,2.26 µM
"NB14 (neuroblastoma, adherent)",0.487,0.577 µM

# Compound: NC(=O)c1ccc(N(C(N)=O)c2c(F)cccc2F)nc1-c1ccc(F)cc1F [VX-702]
# Experiment: as above
# Conditions: top dose 2 µM; top dose inferred
# Method: as §1
Cell Line,AUC,IC50
"MZ2-MEL (melanoma, adherent)",0.971,> 2 µM
"Mo-T (hairy cell leukaemia, suspension)",0.978,> 2 µM
"NALM-6 (B-cell leukaemia, suspension)",0.977,> 2 µM
"NAMALWA (Burkitt lymphoma, suspension)",0.987,> 2 µM
"NB1 (neuroblastoma, semi-adherent)",0.98,> 2 µM
"NB5 (neuroblastoma, adherent)",0.971,> 2 µM
"NB6 (neuroblastoma, adherent)",0.978,> 2 µM
"NB10 (neuroblastoma, adherent)",0.988,> 2 µM
"NB13 (neuroblastoma, adherent)",0.988,> 2 µM
"NB14 (neuroblastoma, adherent)",0.989,> 2 µM

# Compound: O=C(c1cc(Cc2n[nH]c(=O)c3ccccc23)ccc1F)N1CCN(C(=O)C2CC2)CC1 [Olaparib]
# Experiment: as above
# Conditions: top dose 5 µM; screen: GDSC drug entry 1017; top dose inferred
# Method: as §1
Cell Line,AUC,IC50
"MZ2-MEL (melanoma, adherent)",0.893,> 5 µM
"Mo-T (hairy cell leukaemia, suspension)",0.972,> 5 µM
"NALM-6 (B-cell leukaemia, suspension)",0.943,> 5 µM
"NAMALWA (Burkitt lymphoma, suspension)",0.985,> 5 µM
"NB1 (neuroblastoma, semi-adherent)",0.973,> 5 µM
"NB5 (neuroblastoma, adherent)",0.953,> 5 µM
"NB6 (neuroblastoma, adherent)",0.982,> 5 µM
"NB10 (neuroblastoma, adherent)",0.926,> 5 µM
"NB13 (neuroblastoma, adherent)",0.99,> 5 µM
"NB14 (neuroblastoma, adherent)",0.932,> 5 µM

# Same assay, conditions: top dose 10 µM; screen: GDSC drug entry 1495
Cell Line,AUC,IC50
"MZ2-MEL (melanoma, adherent)",0.941,> 10 µM
"Mo-T (hairy cell leukaemia, suspension)",0.933,> 10 µM
"NALM-6 (B-cell leukaemia, suspension)",0.987,> 10 µM
"NAMALWA (Burkitt lymphoma, suspension)",0.971,> 10 µM
"NB1 (neuroblastoma, semi-adherent)",0.955,> 10 µM
"NB5 (neuroblastoma, adherent)",0.905,> 10 µM
"NB10 (neuroblastoma, adherent)",0.8,4.72 µM
"NB13 (neuroblastoma, adherent)",0.984,> 10 µM
"NB14 (neuroblastoma, adherent)",0.943,> 10 µM

# Compound: Cc1cc(N2CCOCC2)cc2[nH]c(-c3c(NC[C@@H](O)c4cccc(Cl)c4)cc[nH]c3=O)nc12 [BMS-536924]
# Experiment: as above
# Conditions: top dose 4 µM; screen: GDSC drug entry 1091; top dose inferred
# Method: as §1
Cell Line,AUC,IC50
"MZ2-MEL (melanoma, adherent)",0.666,0.787 µM
"Mo-T (hairy cell leukaemia, suspension)",0.985,> 4 µM
"NALM-6 (B-cell leukaemia, suspension)",0.957,> 4 µM
"NAMALWA (Burkitt lymphoma, suspension)",0.95,> 4 µM
"NB1 (neuroblastoma, semi-adherent)",0.781,1.83 µM
"NB5 (neuroblastoma, adherent)",0.878,> 4 µM
"NB6 (neuroblastoma, adherent)",0.96,> 4 µM
"NB10 (neuroblastoma, adherent)",0.765,1.43 µM
"NB13 (neuroblastoma, adherent)",0.878,3.25 µM
"NB14 (neuroblastoma, adherent)",0.806,1.9 µM

# Same assay, conditions: top dose 5.12 µM; screen: GDSC drug entry 62
Cell Line,AUC,IC50
"MZ2-MEL (melanoma, adherent)",0.803,3.07 µM
"Mo-T (hairy cell leukaemia, suspension)",0.988,> 5.12 µM
"NALM-6 (B-cell leukaemia, suspension)",0.813,2.22 µM
"NAMALWA (Burkitt lymphoma, suspension)",0.715,1.15 µM
"NB1 (neuroblastoma, semi-adherent)",0.94,> 5.12 µM
"NB5 (neuroblastoma, adherent)",0.698,1.17 µM
"NB6 (neuroblastoma, adherent)",0.983,> 5.12 µM
"NB10 (neuroblastoma, adherent)",0.96,> 5.12 µM
"NB13 (neuroblastoma, adherent)",0.845,3.09 µM
"NB14 (neuroblastoma, adherent)",0.988,> 5.12 µM

# Compound: Cc1ccc(-n2nc(C(C)(C)C)cc2NC(=O)Nc2ccc(OCCN3CCOCC3)c3ccccc23)cc1 [BIRB 0796]
# Experiment: as above
# Conditions: top dose 10 µM; top dose inferred
# Method: as §1
Cell Line,AUC,IC50
"MZ2-MEL (melanoma, adherent)",0.589,1.15 µM
"Mo-T (hairy cell leukaemia, suspension)",0.976,> 10 µM
"NALM-6 (B-cell leukaemia, suspension)",0.991,> 10 µM
"NAMALWA (Burkitt lymphoma, suspension)",0.989,> 10 µM
"NB1 (neuroblastoma, semi-adherent)",0.952,> 10 µM
"NB5 (neuroblastoma, adherent)",0.986,> 10 µM
"NB6 (neuroblastoma, adherent)",0.977,> 10 µM
"NB10 (neuroblastoma, adherent)",0.983,> 10 µM
"NB13 (neuroblastoma, adherent)",0.989,> 10 µM
"NB14 (neuroblastoma, adherent)",0.889,> 10 µM

# Compound: CCNc1cc(NC2CCC(O)CC2)nc(Nc2ccc3c(ccn3Cc3ccccc3)c2)n1 [CGP-082996 (CINK4)]
# Experiment: as above
# Conditions: top dose 5.12 µM; top dose inferred
# Method: as §1
Cell Line,AUC,IC50
"MZ2-MEL (melanoma, adherent)",0.954,> 5.12 µM
"Mo-T (hairy cell leukaemia, suspension)",0.986,> 5.12 µM
"NALM-6 (B-cell leukaemia, suspension)",0.827,2.46 µM
"NAMALWA (Burkitt lymphoma, suspension)",0.946,> 5.12 µM
"NB1 (neuroblastoma, semi-adherent)",0.862,> 5.12 µM
"NB5 (neuroblastoma, adherent)",0.986,> 5.12 µM
"NB6 (neuroblastoma, adherent)",0.984,> 5.12 µM
"NB10 (neuroblastoma, adherent)",0.988,> 5.12 µM
"NB13 (neuroblastoma, adherent)",0.98,> 5.12 µM
"NB14 (neuroblastoma, adherent)",0.936,> 5.12 µM

# Compound: Cc1cccc(-c2[nH]c(C(C)(C)C)nc2-c2ccc3nccnc3c2)n1 [SB-525334]
# Experiment: as above
# Conditions: top dose 20 µM; top dose inferred
# Method: as §1
Cell Line,AUC,IC50
"MZ2-MEL (melanoma, adherent)",0.954,> 20 µM
"Mo-T (hairy cell leukaemia, suspension)",0.877,> 20 µM
"NALM-6 (B-cell leukaemia, suspension)",0.967,> 20 µM
"NAMALWA (Burkitt lymphoma, suspension)",0.796,7.75 µM
"NB1 (neuroblastoma, semi-adherent)",0.661,3.68 µM
"NB5 (neuroblastoma, adherent)",0.92,> 20 µM
"NB6 (neuroblastoma, adherent)",0.762,8.75 µM
"NB10 (neuroblastoma, adherent)",0.805,9.8 µM
"NB13 (neuroblastoma, adherent)",0.837,11.2 µM
"NB14 (neuroblastoma, adherent)",0.708,4.64 µM

# Compound: COc1cc(-c2nn([C@H]3CC[C@H](N4CCN(C(C)=O)CC4)CC3)c3ncnc(N)c23)ccc1NC(=O)c1cc2ccccc2n1C [A-770041]
# Experiment: as above
# Conditions: top dose 5.12 µM; top dose inferred
# Method: as §1
Cell Line,AUC,IC50
"MZ2-MEL (melanoma, adherent)",0.89,> 5.12 µM
"Mo-T (hairy cell leukaemia, suspension)",0.988,> 5.12 µM
"NALM-6 (B-cell leukaemia, suspension)",0.724,1.22 µM
"NAMALWA (Burkitt lymphoma, suspension)",0.729,1.26 µM
"NB1 (neuroblastoma, semi-adherent)",0.965,> 5.12 µM
"NB5 (neuroblastoma, adherent)",0.886,> 5.12 µM
"NB6 (neuroblastoma, adherent)",0.956,> 5.12 µM
"NB10 (neuroblastoma, adherent)",0.988,> 5.12 µM
"NB13 (neuroblastoma, adherent)",0.934,> 5.12 µM
"NB14 (neuroblastoma, adherent)",0.989,> 5.12 µM

# Compound: O=C1NC(=O)c2c1c(-c1ccccc1Cl)cc1[nH]c3ccc(O)cc3c21 [Wee1 inhibitor 681640]
# Experiment: as above
# Conditions: top dose 2 µM; top dose inferred
# Method: as §1
Cell Line,AUC,IC50
"MZ2-MEL (melanoma, adherent)",0.89,> 2 µM
"Mo-T (hairy cell leukaemia, suspension)",0.988,> 2 µM
"NALM-6 (B-cell leukaemia, suspension)",0.972,> 2 µM
"NAMALWA (Burkitt lymphoma, suspension)",0.989,> 2 µM
"NB1 (neuroblastoma, semi-adherent)",0.975,> 2 µM
"NB5 (neuroblastoma, adherent)",0.957,> 2 µM
"NB6 (neuroblastoma, adherent)",0.908,> 2 µM
"NB10 (neuroblastoma, adherent)",0.97,> 2 µM
"NB13 (neuroblastoma, adherent)",0.822,0.995 µM
"NB14 (neuroblastoma, adherent)",0.959,> 2 µM

# Compound: CC(C)=CC[C@@H](O)C1=CC(=O)c2c(O)ccc(O)c2C1=O [Shikonin]
# Experiment: as above
# Conditions: top dose 16 µM; top dose inferred
# Method: as §1
Cell Line,AUC,IC50
"MZ2-MEL (melanoma, adherent)",0.351,0.358 µM
"Mo-T (hairy cell leukaemia, suspension)",0.56,1.46 µM
"NALM-6 (B-cell leukaemia, suspension)",0.159,0.116 µM
"NAMALWA (Burkitt lymphoma, suspension)",0.554,1.37 µM
"NB1 (neuroblastoma, semi-adherent)",0.52,1.14 µM
"NB5 (neuroblastoma, adherent)",0.579,1.65 µM
"NB6 (neuroblastoma, adherent)",0.381,0.434 µM
"NB10 (neuroblastoma, adherent)",0.591,1.76 µM
"NB13 (neuroblastoma, adherent)",0.297,0.291 µM
"NB14 (neuroblastoma, adherent)",0.061,< 0.0625 µM

# Compound: COc1cc(N2CCN(C)CC2)ccc1Nc1ncc2c(n1)N(C)c1ccccc1C(=O)N2C [XMD8-85]
# Experiment: as above
# Conditions: top dose 8 µM; top dose inferred
# Method: as §1
Cell Line,AUC,IC50
"MZ2-MEL (melanoma, adherent)",0.96,> 8 µM
"Mo-T (hairy cell leukaemia, suspension)",0.988,> 8 µM
"NALM-6 (B-cell leukaemia, suspension)",0.862,5.12 µM
"NAMALWA (Burkitt lymphoma, suspension)",0.87,5.55 µM
"NB1 (neuroblastoma, semi-adherent)",0.889,> 8 µM
"NB5 (neuroblastoma, adherent)",0.94,> 8 µM
"NB6 (neuroblastoma, adherent)",0.978,> 8 µM
"NB10 (neuroblastoma, adherent)",0.959,> 8 µM
"NB13 (neuroblastoma, adherent)",0.969,> 8 µM
"NB14 (neuroblastoma, adherent)",0.989,> 8 µM
